Data: article PMC4336329 (PLoS ONE, 2015)
Out of some 310,000 compounds screened, about 14,000 (4.5%) showed an effect of 50% or more. The effect is printed as a negative number. This is one part of the list.

The compounds below were run against human ether-à-go-go-related gene (hERG) potassium channel (human, UniProt Q12809) (assay: primary screen, population patch clamp on CHO cells stably expressing hERG).
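Also: peak tail current of the secondary pulse compared with the same well before compound.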

Chain of human ether-à-go-go-related gene (hERG) potassium channel (Q12809 whole entry, looked up): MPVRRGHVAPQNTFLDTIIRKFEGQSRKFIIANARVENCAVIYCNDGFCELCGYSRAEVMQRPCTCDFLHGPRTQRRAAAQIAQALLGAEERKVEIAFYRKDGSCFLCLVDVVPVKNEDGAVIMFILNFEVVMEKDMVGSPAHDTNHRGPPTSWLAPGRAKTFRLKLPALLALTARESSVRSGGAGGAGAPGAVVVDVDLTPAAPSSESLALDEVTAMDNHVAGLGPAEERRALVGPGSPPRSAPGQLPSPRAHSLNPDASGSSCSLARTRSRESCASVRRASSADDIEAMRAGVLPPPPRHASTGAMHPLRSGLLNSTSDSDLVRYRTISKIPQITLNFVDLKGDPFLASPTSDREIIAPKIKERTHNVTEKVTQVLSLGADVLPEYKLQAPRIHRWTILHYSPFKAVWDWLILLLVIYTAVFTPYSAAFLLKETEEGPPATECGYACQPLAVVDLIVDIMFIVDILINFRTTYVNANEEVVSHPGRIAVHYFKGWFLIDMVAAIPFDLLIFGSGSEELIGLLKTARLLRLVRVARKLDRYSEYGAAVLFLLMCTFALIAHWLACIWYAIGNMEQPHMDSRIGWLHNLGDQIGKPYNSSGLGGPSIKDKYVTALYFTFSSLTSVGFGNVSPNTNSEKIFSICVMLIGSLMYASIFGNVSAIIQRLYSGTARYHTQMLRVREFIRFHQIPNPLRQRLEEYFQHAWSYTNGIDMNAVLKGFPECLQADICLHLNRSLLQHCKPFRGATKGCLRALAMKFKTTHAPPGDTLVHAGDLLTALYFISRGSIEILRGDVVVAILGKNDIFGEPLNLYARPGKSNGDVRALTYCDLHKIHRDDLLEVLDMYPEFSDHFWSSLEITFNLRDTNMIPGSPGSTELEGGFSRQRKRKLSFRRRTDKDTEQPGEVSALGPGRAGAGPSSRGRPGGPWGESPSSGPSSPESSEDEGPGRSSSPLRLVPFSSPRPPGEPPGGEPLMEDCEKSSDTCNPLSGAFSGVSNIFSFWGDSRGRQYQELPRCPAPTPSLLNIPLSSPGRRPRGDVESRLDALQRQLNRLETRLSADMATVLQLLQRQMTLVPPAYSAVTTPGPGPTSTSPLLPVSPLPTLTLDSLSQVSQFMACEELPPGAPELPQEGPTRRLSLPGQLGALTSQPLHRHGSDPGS

| Compound | hERG current change (%, negative = inhibition) at 10uM |
| --- | --- |
| CN(CC(=O)Nc1ccccc1Cl)C(=O)COC(=O)c1nc(Cl)ccc1Cl | -20% |
| COCCCNC(=O)CC(=O)N/N=C\c1ccc(SC)cc1 | 8.87% |
| CN(C)C=NC(=O)/C(C#N)=C/c1ccccc1 | 13.2% |
| O=C1c2ccccc2C(Nc2ccc(Cl)cn2)N1c1cccnc1 (stereo not shown) | -16.5% |
| Cc1cc(C)n(CC(=O)NNC(=O)C2CC(=O)N(Cc3ccccc3Cl)C2)n1 (stereo not shown) | 1.16% |
| COC(=O)Cc1cc(=O)[nH]c(/N=C(\N)Nc2ccccc2C)n1 | -4.72% |
| CCc1ccc(-c2cc(C(=O)Nn3cnnc3)c3ccccc3n2)cc1 | 10.7% |
| COc1ccc(/C=N/Nc2ccccn2)cc1OC | 7.51% |
| Cc1ccc(NC(=O)CNCC2CCCCC2)cc1S(=O)(=O)N(C)C | -9.36% |
| C=CCn1c(N)cc(=O)nc1SCC(=O)Nc1cccc2ccccc12 | 15% |
| CCC(C)NC(=O)CS(=O)Cc1nc(-c2cccc(OC)c2)oc1C (stereo not shown) | 2.84% |
| Cc1cc(C)c2nc(NCCCNC(=S)NCCCN(C)C)c(C#N)cc2c1 | 19.4% |
| CCCN(CCC)CCCNC(=O)c1cn(CC)c2ccc(S(=O)(=O)N3CCc4ccccc4C3)cc2c1=O | -69.9% |
| C/C(CC(=O)NCc1ccccc1)=N\NC(N)=S | 15.9% |
| COCCN(C(=O)CSc1ncc(C(F)(F)F)cc1Cl)c1c(N)n(Cc2ccccc2)c(=O)[nH]c1=O | -5.25% |
| O=[n+]1c2c(n([O-])c3cc(F)c(F)cc31)CCCC2 | 10.2% |
| COc1cc(/C(C)=N/Nc2ccc(C(=O)O)cc2)cc(OC)c1OC | -5.38% |
| COc1ccc(OC)c(C(=O)Cn2c3[n+](c4ccc(C(F)(F)F)cc42)CCCCC3)c1.[Cl-] | -8.32% |
| COc1ccc(CNC(=O)C2(CC3CC(c4ccccc4)=NO3)CCN(C(=O)c3cccc(O)c3)CC2)cc1 (stereo not shown) | -68.2% |
| O=C1Nc2ccccc2C1=Nc1ccc(Cl)cc1 | 19.9% |
| Cc1ccccc1C(=O)NCCN=C1NS(=O)(=O)c2ccccc21 | 10.8% |
| CCCCNC(=O)CNC(=O)c1cccs1 | 11.8% |

| Compound | hERG current change (%, negative = inhibition) at 10uM |
| --- | --- |
| COCCN(C(=O)c1ccc(-c2ccc(Cl)cc2)o1)c1c(N)n(CC(C)C)c(=O)[nH]c1=O | -6.26% |
| Cc1ccc(S(=O)(=O)Nc2c(C)nn(C)c2C)c(C)c1 | -23% |
| COc1cc(OC)cc(Oc2ccc(S(=O)(=O)N3CCCCC3)cc2[N+](=O)[O-])c1 | 1.5% |
| COC(=O)C1N[C@@H]([C@@H](NC(=O)COc2ccccc2)C(=O)Nc2ccc(OC)cc2)SC1(C)C (stereo partly shown) | -27.7% |
| Cc1nnc(SCC2=C(C(=O)[O-])N3C(=O)C(NC(=O)Cc4ccccc4)C3SC2)s1.[Na+] (stereo not shown) | 9.74% |
| COc1ccc(CC(=O)N/N=C/c2cccs2)cc1OC | 12% |
| COc1ccc(-c2noc(CCC(=O)NCc3cccnc3)n2)cc1OC | 0.925% |
| CCOCCn1c(=NC(=O)c2ccc(S(=O)(=O)N3CCOCC3)cc2)sc2cc(S(N)(=O)=O)ccc21 | -1.42% |
| O=C(Nc1nc2ccccc2[nH]1)c1cccc(S(=O)(=O)N2CCOCC2)c1 | -8.91% |
| CN(C)c1oc(-c2ccccc2Cl)nc1C#N | -3.24% |
| O=C(CSc1ccccc1F)NC(=O)NCc1ccco1 | -7.03% |
| CC(=O)NC(C)C(=O)OCC(=O)c1ccc(-c2ccccc2)cc1 (stereo not shown) | 32.4% |
| CC(=O)Nc1cccc(OC(=O)N2CCOCC2)c1 | 18.4% |
| Cc1ccc(S(=O)(=O)N2CCN(C(=O)c3ccc(N4CCCC4)c([N+](=O)[O-])c3)CC2)cc1 | -18.1% |
| Cn1ncc(Cl)c1C(=O)Nc1ccc(CN2CCCCC2)cc1 | 11% |
| N#C/C(=C\c1ccccc1)c1ccccn1 | 30% |
| Cc1cc(C)c(NC(=O)CNC(=O)c2ccc3c(=O)n4c(nc3c2)CCC4)c(C)c1 | 6.54% |
| O=C(CSc1nc2ccccc2[nH]1)NCCN1CCCCC1 | -0.0835% |
| COc1ccc2[nH]c(C(=O)NCc3ccccc3)cc2c1 | -0.642% |
| CCOC(=O)Cc1csc(NC(=O)CN2C(=O)c3ccccc3S2(=O)=O)n1 | -5.8% |
| CC(=O)N1CCCc2cc(S(=O)(=O)N3CCCC(C(=O)NCc4ccc(C)cc4)C3)ccc21 (stereo not shown) | -11.7% |
| C[C@H](NC(=O)c1ccccc1Cl)C(=O)NCCc1ccc(S(N)(=O)=O)cc1 | -4.02% |

| Compound | hERG current change (%, negative = inhibition) at 10uM |
| --- | --- |
| O=C(c1ccco1)N1CCN(S(=O)(=O)c2cc(Cl)ccc2Cl)CC1 | -21.5% |
| CC1=C(C(=O)Nc2ccccn2)C(c2ccc(Cl)cc2)NC(=S)N1 (stereo not shown) | -1.8% |
| CC(OC(=O)CCN=C1NS(=O)(=O)c2ccccc21)C(=O)Nc1ccc(F)cc1Cl (stereo not shown) | -3.04% |
| O=C(CN1CCN(C(=O)c2ccco2)CC1)Nc1cc(C(F)(F)F)ccc1Cl | -63.6% |
| Cc1ccc(NC(=O)CN(C)C(=O)c2nn(C)c(=O)c3ccccc23)cc1 | -35.7% |
| CC(=O)Nc1cccc(NC(=O)CCN2C(=O)c3ccccc3S2(=O)=O)c1 | -4.59% |
| CCc1nnc(NC(=O)COC(=O)CN2C(=O)c3ccccc3C2=O)s1 | 1.09% |
| CC(C)n1nnnc1SCC(=O)N1CCOCC1 | 20.6% |
| Nc1nccnc1C(=O)OCc1nc2sc3c(c2c(=O)[nH]1)CCCC3 | -22.8% |
| COC(=O)CCCC1=CC2=CC(=O)C(C)(OC(=O)c3cccs3)C(=O)C2=CN1CCc1c[nH]c2ccccc12 (stereo not shown) | 15% |
| CC(=O)Nc1ccc(NC(=O)CSc2nnnn2-c2ccccc2F)cc1 | 6.4% |
| Cc1cccc(NC(=O)CCn2nc(C)cc2C)c1 | 9.02% |
| Cc1ccc(C(=O)OC(C)C(=O)NC(C)CCc2ccccc2)o1 (stereo not shown) | 0.142% |
| CCOC(=O)C1CCCN(S(=O)(=O)c2c(C)c(C)cc(C)c2C)C1 (stereo not shown) | -13.9% |
| CCc1ccc(N2CC(C(=O)NC3CCCCC3C)CC2=O)cc1 (stereo not shown) | 15.6% |
| CCOC(=O)C(C)Sc1ncc(OC)c(=O)[nH]1 (stereo not shown) | 16.6% |
| O=c1nc(-c2ccccc2)c2cc(Cl)ccc2[nH]1 | -16.8% |
| Cc1ccccc1Nc1ncc(C#N)c(N)n1 | 17.1% |
| COc1ccc(NC(=S)N2CCC(NC(=O)c3ccc(OC)cc3)CC2)cc1 | 9.06% |
| Cn1cccc1-c1nc2ccccc2n1Cc1ccccc1 | -29.1% |
| COc1cc(SC)ccc1C(=O)NCC1CCCO1 (stereo not shown) | -0.204% |
| CCOC(=O)c1c(NC(=O)CSc2ncnc3[nH]ncc23)sc2c1CCC(C)C2 (stereo not shown) | 8.93% |

| Compound | hERG current change (%, negative = inhibition) at 10uM |
| --- | --- |
| CCc1ccc(CC(=S)N2CCOCC2)cc1 | 16.7% |
| Cc1ccc(NCC(=O)NNC2=NCCC2)c(C)c1 | 31% |
| CCOC(=O)N1CCN(C(=O)c2cnn3c(C(F)(F)F)cc(-c4cccs4)nc23)CC1 | -7.69% |
| CCOC(=O)c1cnn(-c2nc3c(C)cccc3s2)c1C | 11.9% |
| COc1cccc(C(CC(=O)O)NS(=O)(=O)c2ccc3c(c2)N(C(C)=O)CC(C)O3)c1 (stereo not shown) | 24.4% |
| COC(=O)c1c(-c2cccc(C)c2)csc1NC(=O)C1CCCO1 (stereo not shown) | -5.91% |
| CCc1ccc(N2CC(C(=O)OCC(=O)c3c(N)n(CC(C)C)c(=O)n(C)c3=O)CC2=O)cc1 (stereo not shown) | -7.72% |
| C/C(=N/NC(=O)CN1CCN(Cc2ccccc2Cl)CC1)c1cccs1 | -17.8% |
| N#Cc1c(N)nc2c(c1-c1ccccc1)CCC2 | 1.35% |
| CCOc1ccccc1C(=O)NCC(=O)Nc1ncccc1C | 14% |
| O=C(C[n+]1ccccc1)NNc1ccccc1.[Cl-] | 4.77% |
| Cc1c(N=Cc2ccco2)c(=O)n(-c2ccccc2)n1C | -1.18% |
| COc1ccc(/C=C/C(=O)N2c3ccccc3Sc3ccc(C(F)(F)F)cc32)cc1 | 6.89% |
| COc1ccc(C(=O)c2ccc(N3CCOCC3)c([N+](=O)[O-])c2)cc1 | -43.7% |
| CCOC(=O)C1=C(C)NC(C)=C(C(=O)OCC)C1c1ccc(O)cc1 | 7.94% |
| C=CCN1C(=O)C2(OCCCO2)c2cccc(C)c21 | 4.53% |
| CCOP(=S)(NN(Cc1ccccc1)C(=O)c1ccccc1)OCC | 3.16% |
| Cc1ccc2sc(N(CCCN(C)C)C(=O)c3ccc(S(=O)(=O)N4CCOCC4)cc3)nc2c1C.Cl | -35.9% |
| CCOC(=O)n1c(=O)n(C)c2ccc(Br)cc21 | -7.75% |
| O=C(c1ccc2ccccc2n1)N1CCN(c2ccccc2)CC1 | -3.81% |
| COc1cccc(NC(=O)N2CCN(c3nc(-c4cccc(OC)c4)cs3)CC2)c1 | 9.95% |
| COc1ccccc1CNC(=O)C1CCN(S(=O)(=O)c2ccc3c(c2)OCCO3)CC1 | -8.21% |
